{"source": "PubChem BioAssay AID504333", "about": "(National Center for Advancing Translational Sciences (NCATS), 2011)", "note": "Among all 360,000 compounds or so, about 16,000 (4.4%) were called active. The shares of active, inactive and inconclusive entries below differ from those in the screen. Calls follow the shape of the dose curve; as a rule, active = well fitted inhibition curve with a large enough effect; inconclusive = small, poorly fitted or top-dose-only effect; inactive = no such curve, though single readings can be large or run the other way. Where the call is inconclusive, the potency comes from a doubtful curve fit. % is scaled to controls: 0 for no effect and ±100 for the full control effect; potency is read from the fitted curve at half-maximal effect; tags tell the direction and shape of the fitted curve.", "data": [{"biological_target": "Bromodomain adjacent to zinc finger domain protein 2B (Homo sapiens) (UniProt Q9UIF8)", "sequence (Q9UIF8 whole entry, looked up, the tested form may be a part)": "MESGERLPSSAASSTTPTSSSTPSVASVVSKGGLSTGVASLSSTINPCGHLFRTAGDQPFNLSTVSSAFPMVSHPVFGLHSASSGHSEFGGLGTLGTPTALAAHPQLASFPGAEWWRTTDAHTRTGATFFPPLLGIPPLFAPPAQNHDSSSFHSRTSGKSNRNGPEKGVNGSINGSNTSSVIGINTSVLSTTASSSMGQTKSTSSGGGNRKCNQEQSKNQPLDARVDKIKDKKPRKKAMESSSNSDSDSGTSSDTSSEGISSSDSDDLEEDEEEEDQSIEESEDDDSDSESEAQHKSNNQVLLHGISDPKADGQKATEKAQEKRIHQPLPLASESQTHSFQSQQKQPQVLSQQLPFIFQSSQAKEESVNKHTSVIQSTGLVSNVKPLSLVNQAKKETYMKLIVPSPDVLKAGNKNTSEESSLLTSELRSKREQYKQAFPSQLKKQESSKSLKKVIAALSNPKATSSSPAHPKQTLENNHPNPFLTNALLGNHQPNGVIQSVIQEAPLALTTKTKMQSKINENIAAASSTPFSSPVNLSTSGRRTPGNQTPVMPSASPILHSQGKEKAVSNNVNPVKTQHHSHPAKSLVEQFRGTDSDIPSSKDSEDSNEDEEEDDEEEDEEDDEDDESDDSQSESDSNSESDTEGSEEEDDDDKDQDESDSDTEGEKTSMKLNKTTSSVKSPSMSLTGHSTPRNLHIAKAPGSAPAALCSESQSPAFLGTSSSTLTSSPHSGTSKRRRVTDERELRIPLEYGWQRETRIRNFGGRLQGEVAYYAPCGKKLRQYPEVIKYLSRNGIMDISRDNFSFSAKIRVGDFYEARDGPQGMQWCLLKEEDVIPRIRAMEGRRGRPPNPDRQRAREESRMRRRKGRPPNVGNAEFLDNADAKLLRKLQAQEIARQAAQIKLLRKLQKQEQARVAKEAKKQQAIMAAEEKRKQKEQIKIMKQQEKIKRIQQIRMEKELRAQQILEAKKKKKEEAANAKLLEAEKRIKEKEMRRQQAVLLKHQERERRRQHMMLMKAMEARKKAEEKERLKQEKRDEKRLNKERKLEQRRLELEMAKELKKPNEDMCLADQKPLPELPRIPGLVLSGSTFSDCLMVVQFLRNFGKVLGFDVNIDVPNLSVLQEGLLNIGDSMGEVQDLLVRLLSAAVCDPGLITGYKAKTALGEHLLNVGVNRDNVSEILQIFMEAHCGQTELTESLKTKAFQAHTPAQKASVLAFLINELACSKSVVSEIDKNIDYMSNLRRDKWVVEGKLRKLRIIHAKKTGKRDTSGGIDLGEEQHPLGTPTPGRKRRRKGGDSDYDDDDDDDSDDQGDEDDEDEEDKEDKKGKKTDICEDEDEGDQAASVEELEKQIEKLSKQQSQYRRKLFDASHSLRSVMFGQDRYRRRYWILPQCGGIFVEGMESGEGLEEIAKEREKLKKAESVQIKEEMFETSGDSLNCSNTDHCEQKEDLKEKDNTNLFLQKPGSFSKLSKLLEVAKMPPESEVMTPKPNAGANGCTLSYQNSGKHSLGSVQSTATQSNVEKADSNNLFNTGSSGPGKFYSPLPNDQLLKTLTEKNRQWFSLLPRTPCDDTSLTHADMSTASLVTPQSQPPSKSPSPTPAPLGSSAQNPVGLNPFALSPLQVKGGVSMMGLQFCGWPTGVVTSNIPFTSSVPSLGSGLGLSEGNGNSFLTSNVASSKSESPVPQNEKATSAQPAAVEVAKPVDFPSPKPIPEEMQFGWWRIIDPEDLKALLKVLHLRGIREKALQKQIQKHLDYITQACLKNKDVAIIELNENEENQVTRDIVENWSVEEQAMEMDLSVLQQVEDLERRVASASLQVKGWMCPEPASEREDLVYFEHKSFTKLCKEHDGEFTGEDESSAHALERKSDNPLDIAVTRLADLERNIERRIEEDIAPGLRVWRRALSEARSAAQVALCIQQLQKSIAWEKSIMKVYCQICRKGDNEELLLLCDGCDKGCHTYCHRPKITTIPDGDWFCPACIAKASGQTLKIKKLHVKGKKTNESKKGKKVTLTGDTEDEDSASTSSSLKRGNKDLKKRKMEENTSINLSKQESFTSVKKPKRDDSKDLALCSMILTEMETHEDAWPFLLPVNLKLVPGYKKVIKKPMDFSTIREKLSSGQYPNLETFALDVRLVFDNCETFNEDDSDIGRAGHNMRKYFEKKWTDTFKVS", "assay": "qHTS Assay for Inhibitors of BAZ2B; also: nearly all actives have a fitted effect of over 60% in size", "details": "AlphaScreen BAZ2B-H3K14Ac peptide displacement; activity change, negative = inhibition: at 114 µM (top of the series)", "how_it_was_run": "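Complex of BAZ2B and biotin-H3K14Ac (50 nM apiece) forms over 30 min at RT, then faces library compounds up to 110 uM for another 30 min; AlphaScreen beads added, 20 min dark incubation, luminescence read.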", "values": [{"smiles": "O=C(OCC1CC(c2ccccn2)=NO1)c1ccc(Br)cc1", "note": "(stereo unspecified)", "Potency": "inconclusive: 89.1 µM [inhibitor, single point]"}, {"smiles": "Cc1ccc(NS(=O)(=O)c2cccc(C(=O)NNC(=O)c3cccn3C)c2)c(C)c1", "Potency": "active: 44.7 µM"}, {"smiles": "Cc1ccc(S(=O)(=O)N2CCc3cc(C(=O)Nc4ccc(C)c(C)c4)ccc32)cc1", "activity change, negative = inhibition": "inactive: -1.24%"}, {"smiles": "O=[N+]([O-])c1cc(C(F)(F)F)ccc1NCCCN1CCOCC1", "Potency": "inconclusive: 79.4 µM [inhibitor, single point]"}, {"smiles": "COc1ccc(S(=O)(=O)NCc2ccccn2)cc1OC", "Potency": "inconclusive: 89.1 µM [inhibitor, single point]"}, {"smiles": "CCC(=O)OCc1cnc(C)c2oc(=O)c(C(=O)Nc3ccccc3C(F)(F)F)cc12", "activity change, negative = inhibition": "inactive: -5.27%"}, {"smiles": "COc1cccc(OC)c1C(=O)Nc1ccccc1N1CCCC1", "activity change, negative = inhibition": "inactive: -30.9%"}, {"smiles": "Cc1cccc(N(C)C(=O)CN(C)S(=O)(=O)c2ccc3[nH]c4c(c3c2)CCCC4)c1", "Potency": "inconclusive: 39.8 µM [inhibitor, partial curve]"}, {"smiles": "CCc1ccc(NC2=CC(=O)CC(c3ccco3)C2)cc1", "note": "(stereo unspecified)", "Potency": "inconclusive: 44.7 µM [inhibitor, partial curve]"}, {"smiles": "CC1CCN(CCC(=O)Nc2ccc3c(c2)OCCO3)CC1", "Potency": "active: 56.2 µM"}, {"smiles": "CCc1ccc2nc(N(CCCN(C)C)C(=O)c3ccc(S(=O)(=O)N(C)C4CCCCC4)cc3)sc2c1", "Potency": "inconclusive: 14.1 µM [inhibitor, full curve, poor fit]"}, {"smiles": "COC(CNC(=O)c1cccc(-n2c(=S)[nH]c3cc(Cl)ccc3c2=O)c1)OC", "Potency": "inconclusive: 89.1 µM [inhibitor, single point]"}, {"smiles": "COCCn1c(SCC(=O)Nc2cc(C)on2)nnc1-c1ccco1", "Potency": "inconclusive: 6.31 µM [inhibitor, single point]"}, {"smiles": "CCn1c(=O)n(CC)c2cc(N3CCCC3)c(NC(=O)c3ccccc3OC)cc21", "Potency": "active: 44.7 µM"}, {"smiles": "CCN(c1ccc(NC(=O)COC(=O)CCc2cc(OC)c(OC)c(OC)c2)cc1)C(C)C", "activity change, negative = inhibition": "inactive: -38%"}, {"smiles": "O=C1c2ccccc2C(Nc2ccc3c(c2)OCCO3)N1c1ccccn1", "note": "(stereo unspecified)", "Potency": "inconclusive: 44.7 µM [inhibitor, partial curve]"}, {"smiles": "CN(CC(=O)Nc1ccccc1Cl)C(=O)c1ccccc1Sc1ccccc1C#N", "activity change, negative = inhibition": "inactive: -26.9%"}, {"smiles": "CCOc1ccc(NC(=O)CCN2CCN(C)CC2)cc1", "activity change, negative = inhibition": "inactive: 1.91%"}, {"smiles": "CC/C(=C/c1sc2ccc(C)cc2[n+]1CCCS(=O)(=O)[O-])SC", "Potency": "inconclusive: 100 µM [inhibitor, single point]"}, {"smiles": "COc1ccc(S(=O)(=O)Nc2cccc(-c3ccc(N4CCCCCC4)nn3)c2)cc1", "activity change, negative = inhibition": "inactive: -12.6%"}, {"smiles": "Cc1ccc(C(C)(C)C)cc1S(=O)(=O)Nc1nc2ccccc2nc1Cl", "Potency": "inconclusive: 89.1 µM [inhibitor, single point]"}, {"smiles": "c1coc(-c2ncc[nH]2)c1", "Potency": "inconclusive: 89.1 µM [inhibitor, single point]"}, {"smiles": "O=C(Cc1ccccc1)c1ccccc1C(=O)N1CCCCC1", "activity change, negative = inhibition": "inactive: -0.531%"}, {"smiles": "CCOc1ccccc1N1C(=O)CC(Sc2n[nH]c(-c3ccccc3)n2)C1=O", "note": "(stereo unspecified)", "Potency": "inconclusive: 79.4 µM [inhibitor, partial curve]"}, {"smiles": "CCN1/C(=C2\\C(=O)N(C)C(=S)N2C)C=Cc2cc(C)ccc21", "Potency": "active: 44.7 µM"}, {"smiles": "C/C(=N\\NC(=S)Nc1cc(S(=O)(=O)N2CCOCC2)ccc1Cl)c1ccccc1F", "Potency": "inconclusive: 25.1 µM [inhibitor, full curve]"}, {"smiles": "N#C/C(=C\\c1cc(O)c(O)c(O)c1)C(N)=O", "activity change, negative = inhibition": "inactive: 18.2%"}, {"smiles": "c1cc2c3c(cccc3c1)NC1(CCCCC1)N2", "activity change, negative = inhibition": "inactive: -31.8%"}, {"smiles": "O=[N+]([O-])c1cccc(-c2ccc(C(=S)N3CCN(c4ccc(F)cc4)CC3)o2)c1", "Potency": "active: 35.5 µM"}, {"smiles": "Cc1ccccc1C(=O)NNC1=NCCC1", "Potency": "inconclusive: 89.1 µM [inhibitor, single point]"}, {"smiles": "CCc1cccc(NC(=O)CCCN2C(=O)NC(C)(C)C2=O)c1", "activity change, negative = inhibition": "inactive: -1.82%"}, {"smiles": "CCC(C)(C)n1nnnc1C(c1cccs1)N1CCN(Cc2ccccc2)CC1", "note": "(stereo unspecified)", "Potency": "inconclusive: 89.1 µM [inhibitor, single point]"}, {"smiles": "O=C(c1ccc(COc2ccccc2Br)cc1)N1CCCCC1", "activity change, negative = inhibition": "inactive: 16.6%"}, {"smiles": "COC(=O)Cc1ccc(NC(=S)NCCSc2ccc(C)cc2)cc1", "Potency": "inconclusive: 79.4 µM [inhibitor, single point]"}, {"smiles": "Cc1nc2ccccc2c(=O)n1/N=C/c1ccc(O)c(O)c1O", "Potency": "inconclusive: 39.8 µM [inhibitor, partial curve]"}, {"smiles": "O=C(O)c1cccc(S(=O)(=O)N(Cc2ccccc2)c2ccc(Cl)cc2)c1", "Potency": "inconclusive: 89.1 µM [inhibitor, single point]"}, {"smiles": "COc1cccc(/C=N/Nc2nc3ccccc3n3cnnc23)c1O", "Potency": "inconclusive: 79.4 µM [inhibitor, single point]"}, {"smiles": "Cc1ccc(CN(C(=O)COc2ccc(C(C)C)cc2)C2CCS(=O)(=O)C2)o1", "note": "(stereo unspecified)", "Potency": "inconclusive: 44.7 µM [inhibitor, partial curve]"}, {"smiles": "CCOCCCNC(=S)Nc1ccc(S(N)(=O)=O)cc1", "activity change, negative = inhibition": "inactive: -24.3%"}, {"smiles": "COc1ccc(S(=O)(=O)N2CCCCCC2)cc1C(=O)N(C)Cc1ccc(C(C)(C)C)cc1", "Potency": "inconclusive: 70.8 µM [inhibitor, single point]"}, {"smiles": "Cc1cccc(N2CCN(c3nc(C)cc(C)c3C#N)CC2C)c1", "note": "(stereo unspecified)", "Potency": "inconclusive: 89.1 µM [inhibitor, single point]"}, {"smiles": "CCOC(=O)c1c(C)oc2c1c(C(c1cccnc1)N1CCN(C)CC1)c(O)c1ccccc12", "note": "(stereo unspecified)", "Potency": "inconclusive: 79.4 µM [inhibitor, single point]"}, {"smiles": "Cc1ccc(CNC(=O)c2nc(-c3ccc(Cl)cc3)n3c2CCCCC3)cc1", "Potency": "active: 10 µM"}, {"smiles": "Cc1cc(C)c(NC2=CC(=O)CC(C)(C)C2)c(C#N)c1", "Potency": "inconclusive: 89.1 µM [inhibitor, single point]"}, {"smiles": "O=C(c1ccc2[nH]c3c(c2c1)CCCC3)N1CCN(c2ccc(F)cc2)CC1", "Potency": "active: 39.8 µM"}, {"smiles": "Oc1ccc(CNc2cccc(C(F)(F)F)c2)c2cccnc12", "Potency": "active: 22.4 µM"}, {"smiles": "CC1(C)CC(=O)C(=Cc2cn(CCC#N)nc2-c2ccc(F)cc2)C(=O)C1", "activity change, negative = inhibition": "inactive: -3.24%"}, {"smiles": "Cc1cc(N/N=C/c2ccccc2)nc(N)n1", "activity change, negative = inhibition": "inactive: -17%"}, {"smiles": "Cc1ccc(NC(=O)c2sc(=S)n(-c3cc(C)ccc3F)c2N)cc1", "Potency": "inconclusive: 89.1 µM [inhibitor, single point]"}, {"smiles": "Fc1ccc(Cn2nnnc2CN2CCc3ccccc3C2)cc1", "Potency": "inconclusive: 79.4 µM [inhibitor, single point]"}, {"smiles": "Cc1ccc(NC(=O)c2cccc(Oc3ccc([N+](=O)[O-])cc3)c2)c(C(=O)O)c1", "Potency": "inconclusive: 100 µM [inhibitor, single point]"}, {"smiles": "C=CCOc1ccc(/C=C\\c2nc(O)c([N+](=O)[O-])c(=O)[nH]2)cc1OCC", "activity change, negative = inhibition": "inactive: -27.7%"}, {"smiles": "COCc1ccc(CN2CCCC(C(=O)Nc3ccc(-c4cccc(OC)c4)cc3)C2)o1", "note": "(stereo unspecified)", "Potency": "inconclusive: 50.1 µM [inhibitor, partial curve]"}, {"smiles": "Cc1cnc(C(=O)OCC(=O)c2csc(N3CCCCC3)n2)cn1", "Potency": "inconclusive: 89.1 µM [inhibitor, single point]"}, {"smiles": "Cc1ccc(OCC(=O)Nc2ccc(N3CCCC3)cc2)cc1C", "Potency": "active: 28.2 µM"}, {"smiles": "CCc1ccccc1NC(=O)COC(=O)c1cccs1", "activity change, negative = inhibition": "inactive: 9%"}, {"smiles": "COCCCNCCOCCSc1ccc(Cl)cc1", "Potency": "inconclusive: 89.1 µM [inhibitor, single point]"}, {"smiles": "COc1ccc(OC)c(CCNC(=O)CN2C(=O)COc3ccc(S(=O)(=O)N4CCC(C)CC4)cc32)c1", "activity change, negative = inhibition": "inactive: -21.1%"}, {"smiles": "CCCC(=O)NC(c1cccs1)c1cc([N+](=O)[O-])c2cccnc2c1O", "note": "(stereo unspecified)", "Potency": "active: 7.94 µM"}, {"smiles": "OCCN1CCN(C(=S)c2ccc(Cl)cc2)CC1", "activity change, negative = inhibition": "inactive: 5.74%"}, {"smiles": "O/N=C\\c1cccn1-c1ccc(Br)cc1", "Potency": "inconclusive: 79.4 µM [inhibitor, single point]"}, {"smiles": "c1ccc(-c2nnc(SCc3nc4ccccc4[nH]3)n2Cc2ccco2)cc1", "activity change, negative = inhibition": "inactive: -7.26%"}, {"smiles": "Cc1cc(/C([O-])=C(/C(=S)Nc2ccccc2)[n+]2ccccc2)c(C)n1-c1ccccc1", "Potency": "inconclusive: 44.7 µM [inhibitor, partial curve]"}, {"smiles": "CCCS(=O)(=O)N1CCN(C(=O)COc2ccccc2)CC1", "activity change, negative = inhibition": "inactive: -1.35%"}, {"smiles": "COc1ccc(-c2cn3nc(N4CCC(C(=O)Nc5cccc(OC)c5)CC4)sc3n2)cc1", "activity change, negative = inhibition": "inactive: 3.87%"}, {"smiles": "Cc1cc2nc(-c3ccc(OCc4ccc(F)cc4)cc3)cc(C(F)(F)F)n2n1", "activity change, negative = inhibition": "inactive: 5.17%"}, {"smiles": "CC(C)(C)c1csc(NC(=O)c2cccnc2)n1", "Potency": "inconclusive: 89.1 µM [inhibitor, single point]"}, {"smiles": "O=c1c2ccccc2nc(/C=C/c2ccc(Cl)cc2)n1CCO", "Potency": "inconclusive: 31.6 µM [inhibitor, partial curve, poor fit]"}, {"smiles": "Cc1c(Cl)sn(-c2ccc(Cl)cc2)c1=O", "Potency": "active: 39.8 µM"}, {"smiles": "O=C1OC(c2ccccc2)=N/C1=C\\N1CCCCC1", "Potency": "inconclusive: 89.1 µM [inhibitor, single point]"}, {"smiles": "COc1ccc(C2C=C(C34CC5CC(CC(C5)C3)C4)NC(=S)N2)cc1", "note": "(stereo unspecified)", "Potency": "inconclusive: 44.7 µM [inhibitor, partial curve]"}, {"smiles": "CCN1CCN(CCC(=O)Nc2ccccc2OC)CC1", "activity change, negative = inhibition": "inactive: 2.05%"}, {"smiles": "COC(=O)/C(=C\\C(=O)c1ccccc1)Nc1cccc(C(F)(F)F)c1", "Potency": "inconclusive: 89.1 µM [inhibitor, single point]"}, {"smiles": "COc1ccc(CCN(Cc2cccs2)S(=O)(=O)c2ccc(C(=O)O)cc2)cc1OC", "Potency": "inconclusive: 89.1 µM [inhibitor, single point]"}, {"smiles": "CCOc1ccc(NC(=O)CN2CCN(C(=O)C3CCCO3)CC2)cc1", "note": "(stereo unspecified)", "activity change, negative = inhibition": "inactive: -3.74%"}, {"smiles": "Cc1cc(C(=O)COC(=O)c2ccc(O)cc2)c(C)n1CC(F)(F)F", "Potency": "inconclusive: 89.1 µM [inhibitor, single point]"}]}]}
